# This is one part of the list. Each Rep nickase domain was tested in vitro on the same pool of single strands for 1 h at 37 °C with 3 µM enzyme; only the middle of the 90-letter strands is printed. A value is the log2 ratio of uncut reads to the pool without enzyme; the lower, the more was cut; hits are not called. Reads are scaled to the total, so uncut sequences can rise above 0 when many others are cut.
# Experiments:
# Assay in all cases: uncleaved DNA left, log2 of reads against the no-enzyme library (log2 ratio); higher = less cleavage (more negative = more Rep cleavage of the k-mer); sequences stand for … in CTCGTCCG…ACCGGAGA
# [1] = tested on: T1, Rep nickase domain of Muscovy duck circovirus
# T1 sequence (protein, residues 1-111, tag omitted): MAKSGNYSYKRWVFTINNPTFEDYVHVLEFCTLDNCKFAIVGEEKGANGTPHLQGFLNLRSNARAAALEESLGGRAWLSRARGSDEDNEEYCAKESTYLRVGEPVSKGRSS
# Protocol: (§1)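 A pool of 90-nt single-stranded DNAs with seven random bases just before the constant AC of the nick site (name = the seven bases) was cut by 3 µM recombinant His6-SUMO-tagged Rep nickase domain (300 nM DNA, 50 mM HEPES pH 8.0, 50 mM NaCl, 1 mM MnCl2, 1 h, 37 °C, three replicates). Uncut DNA was amplified and sequenced.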
# [2] = tested on: T2, Rep nickase domain of banana bunchy top virus
# T2 sequence (protein, residues 1-94, tag omitted): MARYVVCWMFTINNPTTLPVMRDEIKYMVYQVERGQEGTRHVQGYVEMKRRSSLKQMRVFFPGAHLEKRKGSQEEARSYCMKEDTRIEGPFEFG
# Protocol: as §1
# [3] = tested on: T3, Rep nickase domain of cabbage leaf curl virus
# T3 sequence (protein, residues 1-116, tag omitted): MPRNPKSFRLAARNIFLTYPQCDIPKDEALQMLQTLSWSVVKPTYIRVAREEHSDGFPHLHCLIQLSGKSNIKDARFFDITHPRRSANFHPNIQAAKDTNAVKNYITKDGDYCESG
# Protocol: as §1
# [4] = tested on: T4, Rep nickase domain of chickpea chlorotic dwarf virus
# T4 sequence (protein, residues 1-124, tag omitted): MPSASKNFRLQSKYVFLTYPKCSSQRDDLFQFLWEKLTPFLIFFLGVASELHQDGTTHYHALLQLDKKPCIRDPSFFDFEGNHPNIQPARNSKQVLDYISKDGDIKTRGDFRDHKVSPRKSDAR
# Protocol: as §1
# [5] = tested on: T5, Rep nickase domain of faba bean necrotic yellows virus
# T5 sequence (protein, residues 1-98, tag omitted): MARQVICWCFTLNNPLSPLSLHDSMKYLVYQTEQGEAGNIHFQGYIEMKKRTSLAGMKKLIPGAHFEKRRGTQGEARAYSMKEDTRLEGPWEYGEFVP
# Protocol: as §1
# [6] = tested on: T6, Rep nickase domain of maize striate mosaic virus
# T6 sequence (protein, residues 1-117, tag omitted): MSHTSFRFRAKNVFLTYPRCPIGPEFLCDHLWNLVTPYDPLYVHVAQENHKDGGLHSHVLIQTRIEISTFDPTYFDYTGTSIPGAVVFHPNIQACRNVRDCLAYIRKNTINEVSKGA
# Protocol: as §1
# [7] = tested on: T7, Rep nickase domain of porcine circovirus 2
# T7 sequence (protein, residues 2-116, tag omitted): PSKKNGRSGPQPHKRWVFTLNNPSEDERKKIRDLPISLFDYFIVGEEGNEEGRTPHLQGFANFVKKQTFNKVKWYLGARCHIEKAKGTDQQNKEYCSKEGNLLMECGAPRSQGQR
# Protocol: as §1
# [8] = tested on: T8, Rep nickase domain of tomato yellow leaf curl virus
# T8 sequence (protein, residues 1-136, tag omitted): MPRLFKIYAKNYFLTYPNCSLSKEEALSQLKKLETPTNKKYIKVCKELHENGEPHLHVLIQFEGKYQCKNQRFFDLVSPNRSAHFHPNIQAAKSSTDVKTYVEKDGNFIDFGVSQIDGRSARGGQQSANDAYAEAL
# Protocol: as §1
# [9] = tested on: T9, Rep nickase domain of wheat dwarf virus
# T9 sequence (protein, residues 1-137, tag omitted): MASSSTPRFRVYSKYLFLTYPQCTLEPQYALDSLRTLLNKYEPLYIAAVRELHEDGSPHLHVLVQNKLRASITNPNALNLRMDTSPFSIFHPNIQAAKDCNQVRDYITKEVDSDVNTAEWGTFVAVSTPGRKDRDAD
# Protocol: as §1
Sequence,uncleaved DNA left (log2) [1],uncleaved DNA left (log2) [2],uncleaved DNA left (log2) [3],uncleaved DNA left (log2) [4],uncleaved DNA left (log2) [5],uncleaved DNA left (log2) [6],uncleaved DNA left (log2) [7],uncleaved DNA left (log2) [8],uncleaved DNA left (log2) [9]
CATGGGG,0.00927,-0.0412,-0.443,-0.424,0.0714,-0.825,0.117,-0.0618,-0.0609
GAGCCCG,-0.0589,-0.112,-0.519,-0.38,-0.063,-0.571,-0.0503,-0.106,-0.0793
TTGGTGT,0.124,-0.144,-0.263,-0.469,0.0196,-0.812,0.012,-0.0816,-0.0705
GACATAC,0.0556,0.0585,0.608,1.35,0.0696,1.57,0.0971,0.0778,0.132
CTTGGCT,-0.00676,-0.0531,-0.434,-1.36,-0.00745,-1.2,-0.0895,-0.0428,-0.0406
GAGGCTC,-0.00208,0.202,0.556,1.18,0.0327,1.8,0.137,0.0611,0.106
GGAGGAC,-0.0653,-0.067,0.758,1.91,-0.0865,2.08,0.175,0.0101,0.0797
AAAGCGC,-0.0129,-0.0951,-0.772,-0.258,-0.0361,-1.05,0.102,-0.0744,-0.219
CGAGTAA,0.0617,0.127,0.0476,0.0945,-0.0318,0.073,-0.425,0.105,0.195
ACCTCGG,-0.0545,-0.00781,-0.0518,0.297,0.0653,-0.499,0.0907,-0.107,-0.0526
TCAGCCG,-0.0892,-0.116,-0.859,-0.438,-0.0546,-0.995,0.0778,-0.0376,-0.126
AGGCAAA,-0.0444,0.0951,0.319,0.658,-0.0105,0.371,0.0756,0.0762,0.176
CACCGTG,-0.0278,0.00627,-0.654,-0.715,-0.104,-1.08,-0.0136,-0.07,-0.154
CCAGTCT,-0.0479,-0.124,-0.424,-2.18,-0.0756,-0.866,-0.0463,-0.203,-0.32
TTCCAAC,0.0119,0.0312,0.153,-1.12,-0.00268,-0.00218,0.0315,0.0322,0.0743
